PubChem BioAssay AID493208 (National Center for Advancing Translational Sciences (NCATS), 2011)
Among all 44,000 compounds or so, about 340 (0.77%) were called active. Another 5% or so got no clear call; they are omitted. Calls follow the shape of the dose curve; as a rule, active = well fitted inhibition curve with a large enough effect; inconclusive = small, poorly fitted or top-dose-only effect; inactive = flat fitted curve, though single readings scatter. This is one part of the list.

Experiment: Acumen qHTS Assay for Inhibitors of the mTORC1 Signaling Pathway in MEF (Tsc2-/-, p53-/-) Cells: Sytravon;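 also: plate controls were DMSO for no effect and rapamycin for full effect; nearly all actives have a fitted effect of over 50% in size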
Conditions: phospho-rpS6 immunofluorescence/PI, 24 h; series mostly up to 38.3 µM; activity change, negative = inhibition: at the top concentration
Outline: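 Read-out: phospho-S6 Alexa-488 intensity over PI intensity per well, scored as % active cells using thresholds from rapamycin (7.5 nM) and DMSO controls. Tsc2-/-, p53-/- MEFs exposed to compound for 24 h; PI cell count recorded as viability.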

Activity change, negative = inhibition, inactive:
CCCCOc1cccc(C2c3c(oc4ccccc4c3=O)C(=O)N2c2ccccn2)c1 (configuration not stated) -0.123%
CCS(=O)(=O)N1CCC(n2c(C(F)(F)F)nc3cccnc32)CC1 -0.202%
COc1ccccc1N1CCN(c2ncccc2-c2nc(-c3ccc(Cl)cc3)no2)CC1 -0.0356%
CCc1ccc(C(=O)c2cn(CC(=O)Nc3ccc(OC)c(OC)c3)c3ccc(C)cc3c2=O)cc1 -5.8%
O=c1c2c(-c3ccccc3)ccnc2[nH]n1-c1ccccc1 0.668%
COCCN1C(=O)c2[nH]nc(-c3ccccc3O)c2C1c1ccc(Cl)c(Cl)c1 (configuration not stated) 0%
O=C(CCN1N=C(c2ccccc2)CCC1=O)NCCc1ccc(Cl)cc1 -1.06%
Cc1nn(C(=O)c2c(F)cccc2F)c(C)c1S(=O)(=O)N1CCOCC1 -4.7%
COc1ccc(CCNC(=O)c2ccc3c(c2)N(Cc2ccccc2F)C(=O)c2ccccc2S3(=O)=O)cc1OC 1.75%
Cc1ccc(CN(Cc2ccco2)C(=O)COc2cc(C)c(Cl)c(C)c2)cc1 -3.34%
O=C(NCCc1ccccc1)c1cc(S(=O)(=O)N2CCCCC2)c[nH]1 -8.21%
CCOC(=O)c1cnc2c(ccc3ccccc32)c1Nc1cccc(OC)c1 8.49%
Cc1ccc(NC(=O)/C=C/c2ccc(C)o2)c(C)c1 -0.524%
Cc1cccc(N2CCN(C(=O)c3cc4c(=O)oc5ccccc5c4s3)CC2)c1C -4.92%
Cc1cc(C(F)F)n2nc(C(=O)Nc3c(C)cccc3C)nc2n1 4.43%
Oc1c(C(c2ccccc2Cl)N2CCCC2)sc2nc(-c3ccco3)nn12 (configuration not stated) -2.02%
CCOc1ccc(N(CC(=O)NCc2ccccc2Cl)S(=O)(=O)c2c(C)[nH]c(=O)[nH]c2=O)cc1 0.255%
CC(=O)Nc1ccc(NC(=O)CSc2nc3ccccc3nc2N2CCOCC2)cc1 -9.14%
COc1ccc(S(=O)(=O)N2CCC(Oc3ccc(-n4cnnn4)cc3)CC2)cc1OC -2.33%
CCOc1ccc(C(=O)c2cn(Cc3ccccc3OC)c3ccc(F)cc3c2=O)cc1 7.85%
COc1ccc(-n2c(CC3C(=O)N(C)c4ccc(C)cc43)nc3ccccc3c2=O)cc1 (configuration not stated) -5.33%
CCc1ccc(NC(=O)CN(c2ccc(OC)cc2)S(=O)(=O)c2c(C)[nH]c(=O)[nH]c2=O)cc1 1.53%
COc1ccc(CCNc2ncnc3c2cnn3-c2ccc(C)cc2)cc1 13.4%
CN1C(=O)c2ccccc2Sc2ccc(NC(=O)COc3ccc(F)cc3)cc21 -4.44%
Cc1ccccc1C(=O)Nc1nnc(S(=O)(=O)N2c3ccccc3CC2C)s1 (configuration not stated) -0.891%
COc1ccc(C2C(=O)N(C3CCCCCC3)CC(=O)N2Cc2ccc(C)cc2)cc1OC (configuration not stated) 9.35%
Cc1nn(-c2ccccc2)c2nc(C3CC3)cc(C(=O)Nc3ccccc3F)c12 -8.32%
